# Assay results from PubChem BioAssay AID504333 (National Center for Advancing Translational Sciences (NCATS), 2011).
# The campaign covered roughly 360,000 compounds. About 16,000 (4.4%) were called active. Inconclusive results, whose numbers are uncertain, are shown with a selection of clear calls. The call rests on the fitted dose curve; in most records, active means well fitted inhibition curve with a large enough effect; inconclusive means small, poorly fitted or top-dose-only effect; inactive means no such curve, though single readings can be large or run the other way. Potencies beside an inconclusive call are fits to weak or partial responses and may not hold up.
# Biological target: Bromodomain adjacent to zinc finger domain protein 2B (Homo sapiens) (UniProt Q9UIF8)
# Assay: qHTS Assay for Inhibitors of BAZ2B; further: nearly all actives have a fitted effect of over 60% in size
# Details: AlphaScreen BAZ2B-H3K14Ac peptide displacement; activity change, negative = inhibition: at 114 µM (top of the series) unless noted
# Method in brief: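 AlphaScreen displacement: compounds (up to 110uM) incubated 30 min at room temperature with a preformed 50 nM BAZ2B/50 nM biotinylated H3K14Ac peptide complex in PBS pH 7.4 with Tween-20. Donor and acceptor beads at 10 ug/mL final added, 20 min light-protected before reading.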
# On the % scale 0 is the no-effect control and ±100 the full control effect; potency means the concentration at half of the fitted maximal effect; tags describe the fitted curve by direction and shape.
# Chain of UniProt Q9UIF8 (Q9UIF8 whole entry, looked up, the tested form may be a part): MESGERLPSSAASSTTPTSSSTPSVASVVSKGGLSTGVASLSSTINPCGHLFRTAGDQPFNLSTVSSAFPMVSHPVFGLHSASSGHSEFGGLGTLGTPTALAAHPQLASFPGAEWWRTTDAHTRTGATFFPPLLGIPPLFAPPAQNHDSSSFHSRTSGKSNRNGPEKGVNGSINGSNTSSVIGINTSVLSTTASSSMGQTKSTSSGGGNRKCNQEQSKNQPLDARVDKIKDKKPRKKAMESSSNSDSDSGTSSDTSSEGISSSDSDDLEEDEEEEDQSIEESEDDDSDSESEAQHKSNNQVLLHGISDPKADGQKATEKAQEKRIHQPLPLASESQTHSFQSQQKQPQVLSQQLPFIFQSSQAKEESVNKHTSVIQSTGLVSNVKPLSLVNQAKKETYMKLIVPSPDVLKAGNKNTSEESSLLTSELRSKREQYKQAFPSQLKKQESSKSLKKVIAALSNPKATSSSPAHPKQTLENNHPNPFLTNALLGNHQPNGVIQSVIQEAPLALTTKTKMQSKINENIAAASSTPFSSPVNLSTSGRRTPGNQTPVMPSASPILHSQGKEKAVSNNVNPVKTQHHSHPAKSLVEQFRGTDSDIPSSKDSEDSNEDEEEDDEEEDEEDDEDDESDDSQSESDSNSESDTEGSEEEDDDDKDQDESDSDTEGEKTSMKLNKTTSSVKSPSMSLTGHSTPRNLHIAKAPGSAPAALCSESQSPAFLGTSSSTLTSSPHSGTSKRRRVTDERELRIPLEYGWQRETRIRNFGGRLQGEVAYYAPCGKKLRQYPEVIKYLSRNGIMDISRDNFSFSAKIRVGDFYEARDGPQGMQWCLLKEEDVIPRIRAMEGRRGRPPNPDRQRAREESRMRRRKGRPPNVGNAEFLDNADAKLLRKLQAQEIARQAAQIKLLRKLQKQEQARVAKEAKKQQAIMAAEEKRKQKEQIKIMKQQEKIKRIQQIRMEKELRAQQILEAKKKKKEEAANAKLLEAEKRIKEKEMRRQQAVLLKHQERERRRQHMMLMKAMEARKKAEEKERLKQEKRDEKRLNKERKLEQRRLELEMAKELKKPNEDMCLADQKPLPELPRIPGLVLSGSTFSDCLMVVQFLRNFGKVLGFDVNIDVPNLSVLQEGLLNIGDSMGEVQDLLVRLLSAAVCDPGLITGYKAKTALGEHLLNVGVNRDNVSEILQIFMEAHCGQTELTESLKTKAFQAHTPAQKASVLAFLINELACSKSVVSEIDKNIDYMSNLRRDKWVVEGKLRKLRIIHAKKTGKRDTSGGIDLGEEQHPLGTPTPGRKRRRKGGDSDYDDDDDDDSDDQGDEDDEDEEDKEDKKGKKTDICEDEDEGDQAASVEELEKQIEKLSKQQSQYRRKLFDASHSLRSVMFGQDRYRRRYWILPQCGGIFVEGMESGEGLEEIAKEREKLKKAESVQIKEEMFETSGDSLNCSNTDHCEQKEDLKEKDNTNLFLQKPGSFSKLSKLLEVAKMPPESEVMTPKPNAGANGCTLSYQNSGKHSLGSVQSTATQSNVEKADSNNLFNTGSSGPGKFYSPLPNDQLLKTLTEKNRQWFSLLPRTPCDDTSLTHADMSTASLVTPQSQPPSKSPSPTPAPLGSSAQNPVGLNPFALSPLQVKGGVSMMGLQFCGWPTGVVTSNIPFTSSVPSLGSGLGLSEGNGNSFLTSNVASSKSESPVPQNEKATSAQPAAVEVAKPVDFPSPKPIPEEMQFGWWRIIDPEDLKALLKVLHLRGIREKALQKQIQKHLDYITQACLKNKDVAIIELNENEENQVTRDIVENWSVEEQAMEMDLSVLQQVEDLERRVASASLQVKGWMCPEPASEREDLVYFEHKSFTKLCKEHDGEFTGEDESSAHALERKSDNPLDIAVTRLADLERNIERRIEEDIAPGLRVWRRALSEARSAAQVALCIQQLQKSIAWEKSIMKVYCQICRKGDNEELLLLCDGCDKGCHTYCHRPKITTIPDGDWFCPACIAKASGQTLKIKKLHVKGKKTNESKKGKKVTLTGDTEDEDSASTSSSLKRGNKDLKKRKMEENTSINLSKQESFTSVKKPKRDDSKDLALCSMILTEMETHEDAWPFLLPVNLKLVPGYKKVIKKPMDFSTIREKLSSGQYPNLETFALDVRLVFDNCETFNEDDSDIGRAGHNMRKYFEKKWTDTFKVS
Structure (SMILES),Potency,"activity change, negative = inhibition"
CCOCc1cc(C)[nH]c(=O)c1C#N,"inconclusive: 89.1 µM [inhibitor, single point]",
COc1ccc(OC)c(S(=O)(=O)NCc2cccn2Cc2cccc(C)c2)c1,"inconclusive: 79.4 µM [inhibitor, partial curve]",
CC(C)COc1ccc(CNC(=S)Nc2ccccc2)cc1Cl,,inactive: -13.9%
COc1ccc2c(C)cc(N3CCN(c4ccc(F)cc4)CC3)nc2c1,,inactive: -33.9%
Cc1ccn(-c2n[nH]c(C)c2[N+](=O)[O-])n1,"inconclusive: 56.2 µM [inhibitor, partial curve]",
CCC(=O)N1CCN(c2ccc(NC(=O)c3ccco3)cc2)CC1,"inconclusive: 100 µM [inhibitor, single point]",
COc1cc(OC)cc(C(=O)N[C@H](C(=O)NCCc2c[nH]c3ccccc23)C(C)C)c1,"inconclusive: 39.8 µM [inhibitor, partial curve]",
NC[C@H](Cc1ccccc1)NCCCCC1CCCCC1,,inactive: -9.2%
O=C(NCc1cccc(Cl)c1)c1ccc(NC(=O)N2CC3CCCN3c3ccccc32)cc1 (centres undefined),"inconclusive: 28.2 µM [inhibitor, partial curve]",
CCN(CC)S(=O)(=O)c1cccc(NC(=O)CN(C)Cc2cccc(OC)c2)c1,active: 50.1 µM,
CCN(CC)c1ccc(C(=O)NNC(=O)CCl)cc1,"inconclusive: 79.4 µM [inhibitor, partial curve]",
COC1=CC(=Cc2c(N)n3nc(CC(=O)N4CCOCC4)sc3nc2=O)C=C(OC)C1=O,active: 44.7 µM,
O=C1CC(c2ccco2)CC(O)=C1C=Nc1cc(Cl)ccc1Cl (centres undefined),active: 50.1 µM,
COc1ccc(-c2sc3cc4c(cc3c2C#CC2(O)CCCCC2)OCO4)cc1,"inconclusive: 89.1 µM [inhibitor, single point]",
Cc1cccc(OCc2nc(-c3ccccn3)n[nH]2)c1,active: 8.91 µM,
Oc1ccc2ccccc2c1C1Nc2cccc3cccc(c23)N1,active: 39.8 µM,
COc1ccc(C2CC(c3ccccc3)Nc3nc(NC(=O)c4cccs4)nn32)cc1 (centres undefined),,inactive: 12.9%
Cc1onc(-c2c(Cl)cccc2Cl)c1COC(=O)c1ccc([N+](=O)[O-])cc1,"inconclusive: 17.8 µM [inhibitor, full curve]",
Cc1ccc(CN2C(=O)N/C(=C/c3ccc4c(c3)n(C)c(=O)n4C)C2=O)cc1,"inconclusive: 89.1 µM [inhibitor, single point]",
CCOc1ccc(N=Nc2cc(C(C)C)ccc2O)cc1,active: 5.62 µM,
O=C1COc2ccc(N3C(=O)C=CC3=O)cc2N1,active: 100 µM,
COc1ccc(Oc2c(-c3ccc(O)cc3O)n[nH]c2C)cc1,"inconclusive: 89.1 µM [inhibitor, single point]",
O=C(NCCNCc1ccc(F)cc1)c1ccco1,active: 50.1 µM,
O=c1[nH]c(-c2ccccn2)nc2ccccc12,active: 44.7 µM,
O=C(C1CC2C=CC1C2)N1CCN(c2ccccc2)CC1 (centres undefined),"inconclusive: 89.1 µM [inhibitor, single point]",

Structure (SMILES),Potency,"activity change, negative = inhibition"
CCOC(=O)C(c1ccccc1)N1CCN(c2ccc(OC)cc2)CC1 (centres undefined),"inconclusive: 39.8 µM [inhibitor, partial curve]",
CCN1CCN(C2=C(NS(=O)(=O)c3ccc(C)cc3)C(=O)c3ccccc3C2=O)CC1,"inconclusive: 44.7 µM [inhibitor, partial curve]",
CC1CCN(C(=O)COC(=O)c2ccc3c(c2)C(=O)N(Cc2ccco2)C3=O)CC1,,inactive: -12.9%
CCN(CC)CCNC(=O)c1c(C)n(-c2ccccc2)c2cc(Br)c(OC)cc12,"inconclusive: 44.7 µM [inhibitor, partial curve]",
CC(NCc1ccc2c(c1)OCO2)C(=O)NC1CCCCC1 (centres undefined),,inactive: -17.2%
COc1cc(NC(=O)COC(=O)C=C(C)C)c(C)cc1[N+](=O)[O-],"inconclusive: 70.8 µM [inhibitor, single point]",
Cc1cccc(N2CCN(C(=O)CN3CCSc4ccccc43)CC2C)c1 (centres undefined),"inconclusive: 25.1 µM [inhibitor, partial curve]",
COc1ccc(Br)cc1C(C[N+](=O)[O-])c1c(N)n(C)c(=O)n(C)c1=O (centres undefined),"inconclusive: 50.1 µM [inhibitor, partial curve]",
Cc1c(C2=CCN(S(=O)(=O)c3cccc(Cl)c3)CC2)c2ccccc2n1CC(=O)N1CCCC1,,inactive: -24.9%
Cc1c(NC(=O)Nc2ccc([N+](=O)[O-])cc2)c(=O)n(-c2ccccc2)n1C,,inactive: -3.23%
Cn1cc(/C=C2\SC(=O)NC2=S)c2ccccc21,active: 31.6 µM,
COc1ccc(OC)c(CNC(=O)c2ccc(-c3nc(CSc4ccccc4)c(C)o3)cc2)c1,"inconclusive: 89.1 µM [inhibitor, single point]",
COCCCNC(=O)/C(C#N)=C/c1ccc(OCC(=O)O)c(OC)c1,active: 20 µM,
CCSc1ncc(/C=N/Nc2ccc(F)cc2)n1C,"inconclusive: 28.2 µM [inhibitor, single point]",
CC(C)(C)c1ccc(C(=O)N2CCNCC2)cc1,,inactive: 1.53%
Cc1ccc(CNC(=O)c2ccc(N3CCc4ccccc43)c([N+](=O)[O-])c2)cc1,active: 10 µM,
Cc1cc[n+](CC(=O)c2ccc(NC(=O)c3ccccc3)cc2)c2ccccc12,"inconclusive: 79.4 µM [inhibitor, single point]",
CCOc1ccc(N=C2NC(=O)C(CC(=O)Nc3ccc(OC)cc3)S2)cc1 (centres undefined),,inactive: -10.4%
COc1ccc(CCn2c(C)c(C(C)=O)c(C(C)=O)c2C)cc1OC,,inactive: -14.7%
COc1ccccc1N(O)C1CC(=O)N(c2ccc(F)cc2)C1=O (centres undefined),"inconclusive: 89.1 µM [inhibitor, single point]",
O=C(Nc1nnc(-c2ccco2)o1)c1cccc(Cl)c1,"inconclusive: 89.1 µM [inhibitor, single point]",
COc1ccc(Nc2ncnc3sc(C)cc23)cc1,"inconclusive: 89.1 µM [inhibitor, partial curve]",
CCn1c(-c2ccc(F)cc2)cnc1SCC(=O)N1CCc2ccccc21,"inconclusive: 8.91 µM [inhibitor, full curve, poor fit]",
CC(=O)c1cccc(NC(=O)c2ccccc2N(Cc2ccccc2)S(C)(=O)=O)c1,"inconclusive: 89.1 µM [inhibitor, single point]",
COc1cc(/C=N/Nc2nc(=O)[nH]nc2C)ccc1O,"inconclusive: 31.6 µM [inhibitor, full curve, poor fit]",

Structure (SMILES),Potency,"activity change, negative = inhibition"
COc1cc(O)c(C(CCN2CCCCC2)c2ccc3c(c2)OCO3)c(OC)c1 (centres undefined),"inconclusive: 70.8 µM [inhibitor, single point]",
COc1ccc(NC(=O)c2ccccc2)c([N+](=O)[O-])c1,"inconclusive: 25.1 µM [inhibitor, partial curve]",
C=CCc1ccc(OCC(O)CN2CCN(Cc3ccccc3)CC2)c(OC)c1 (centres undefined),"inconclusive: 79.4 µM [inhibitor, single point]",
COc1ccc(CN(Cc2ccco2)c2cnc(S(C)(=O)=O)nc2C(=O)Nc2ccc(C)c(Cl)c2)cc1,"inconclusive: 89.1 µM [inhibitor, single point]",
Cc1cccnc1Nc1nc(-c2ccc(O)c(O)c2)cs1,active: 39.8 µM,
Cc1cc(/C=N/n2cnnc2)c(C)n1-c1ccc(OCc2ccc(Cl)cc2)cc1,active: 79.4 µM,
CCOc1ccccc1C(=O)Nc1ccc2c(c1)N(C)C(=O)c1ccccc1S2,"inconclusive: 89.1 µM [inhibitor, single point]",
COc1cc(OC)cc(C(=O)Nc2ccc(Nc3ccccc3)cc2)c1,active: 25.1 µM,
CN1CCN(C(=O)/C(=C\c2cccs2)NC(=O)c2ccco2)CC1,,inactive: 2.25%
COc1cc(-c2n[nH]c(=S)n2/N=C/c2cccn2C)cc(OC)c1OC,"inconclusive: 79.4 µM [inhibitor, single point]",
Cc1ccc(C)c(Nc2c([N+](=O)[O-])ccc3nonc23)c1,active: 3.55 µM,
CCOC(=O)c1cc(-c2ccc(C)cc2)n(CCC(=O)NCCN(C)C)c1C,active: 50.1 µM,
COc1cccc(/C=N/Nc2ncnc3c2[nH]c2ccc(C)cc23)c1OC,"inconclusive: 79.4 µM [inhibitor, single point]",
CCSc1nc(O)cc(=O)[nH]1,,inactive: -17.9%
CC(=O)N1CCc2cc(N=NC3=C(O)CCCC3=O)ccc21,"inconclusive: 79.4 µM [inhibitor, partial curve]",
O=S(=O)(Nc1ccncc1)c1ccccc1,"inconclusive: 89.1 µM [inhibitor, single point]",
COc1ccc(NC(=O)c2cc(-c3ccco3)nc3ccccc23)cc1S(=O)(=O)N1CCOCC1,active: 44.7 µM,
CCOC(=O)c1c(NC(=O)CSc2nnc(C)c(=O)[nH]2)sc(C)c1C,"inconclusive: 100 µM [inhibitor, partial curve]",
COC(=O)c1nc2n(n1)C(c1cc(OC)ccc1OC)C(C(=O)OC1CCCCC1)=C(C)N2 (centres undefined),"inconclusive: 79.4 µM [inhibitor, single point]",
CCN(CC)CCn1c(NCc2nc3ccccc3n2Cc2ccccc2)nc2ccccc21,"inconclusive: 79.4 µM [inhibitor, single point]",
Cc1cc(NC(=O)CSc2ncnc3sc4c(c23)CCC(C)C4)no1 (centres undefined),,inactive: -2.65%
O=C(COC(=O)CCOc1ccccc1)NCc1ccco1,active: 31.6 µM,
CC(=O)c1c(C)[nH]c(C(=O)OCC(=O)N2CCc3ccccc3C2)c1C,"inconclusive: 89.1 µM [inhibitor, single point]",
Cc1cc(C)n(-c2nnc(C)n2NS(=O)(=O)c2ccc(F)cc2)n1,"inconclusive: 89.1 µM [inhibitor, single point]",
